Data from article PMC5892938.
Some of the results follow. At the low end of the ranking the order means little.

These sequences were tested against GST-SBP-SLBP (stem-loop binding protein) (UniProt Q14493) (assay: targeted RNA Bind-n-Seq). Conditions: RBNS binding buffer: 25 mM Tris pH 7.5, 150 mM KCl, 3 mM MgCl2, 0.1% Tween, 0.5 mg/mL BSA, 1 mM DTT; 27 nM protein, 750 pM RNA pool; temperature not stated; high values mean tight binding.
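Also: DESeq read counts versus GST-SBP nonspecific binding control pulldown.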

Row | Sequence | binding signal (log2 fold change)
1 | GGUCACGUCUCAAUCAACUCUUUUUCCAGGGAAAUCCCUGGCUAUGUCAACAGCUCGCAGUCAAG | 0.167
2 | GGUCACGUCUCAAUCAACUCUCUAGAGGGGGGGAAAACCCCUUUACCCUCAUUUUCAACAGCUCGCAGUCAAG | -0.577
3 | GGUCACGUCUCAAUCAACUCAUUUCCAGGAGUUUCCUCCUGCAUUCUCAACAGCUCGCAGUCAAG | 0.0615
4 | GGUCACGUCUCAAUCAACUCAGUCUCCAGGGAAAUCCCUGGCAAUCUCAACAGCUCGCAGUCAAG | 0.4
5 | GGUCACGUCUCAAUCAACUCAUCGCCCAGGGAAACCCCUGGUAUUUUCAACAGCUCGCAGUCAAG | -0.172
6 | GGUCACGUCUCAAUCAACUCAUUUUCCAGGGAAACCCCUGGCUAUUUCAACAGCUCGCAGUCAAG | -0.00667
7 | GGUCACGUCUCAAUCAACUCUUUCCCCAGGGAAAGCCCUGGUAAUCUCAACAGCUCGCAGUCAAG | -0.0641
8 | GGUCACGUCUCAAUCAACUCAACUCCCAGGGAAACCCCUGGCAAAUUCAACAGCUCGCAGUCAAG | -0.312
9 | GGUCACGUCUCAAUCAACUCAAUGGAGGGGGGGAAAACCCCUUUACCCUCAAAAUCAACAGCUCGCAGUCAAG | 0.547
10 | GGUCACGUCUCAAUCAACUCUACUCCCAGGGAAAGCCCUGGUAAAUUCAACAGCUCGCAGUCAAG | 0.00551
11 | GGUCACGUCUCAAUCAACUCAGUCUCAGGAGUUUUCUCCUGUAUAUUCAACAGCUCGCAGUCAAG | -0.0619
12 | GGUCACGUCUCAAUCAACUCUUUCUCAGGAGUUUCCUCCUGUUAUGUCAACAGCUCGCAGUCAAG | 0.0896
13 | GGUCACGUCUCAAUCAACUCCUCAGAGGGGGGGAAAACCCCUUUACCCUCCAUUUCAACAGCUCGCAGUCAAG | 0.0358
14 | GGUCACGUCUCAAUCAACUCAUUAGAGGGGGGGAAAACCCCUUUACCCUCGUUAUCAACAGCUCGCAGUCAAG | 0.00621
15 | GGUCACGUCUCAAUCAACUCUUCUCCCAGGGAAACCCCUGGCAAAUUCAACAGCUCGCAGUCAAG | 0.154
16 | GGUCACGUCUCAAUCAACUCAUCGGCCAGGGAAACCCCUGGGAAAUUCAACAGCUCGCAGUCAAG | -0.211
17 | GGUCACGUCUCAAUCAACUCUAAAGAGGGGGGGAAAACCCCUUUACCCUCAAACUCAACAGCUCGCAGUCAAG | -0.0897
18 | GGUCACGUCUCAAUCAACUCUUUCUCAGGAGUUUACUCCUGUAAAUUCAACAGCUCGCAGUCAAG | 0.0497
19 | GGUCACGUCUCAAUCAACUCCUCGGAGGGGGGGAAAACCCCUUUACCCUCAAAAUCAACAGCUCGCAGUCAAG | -0.0927
20 | GGUCACGUCUCAAUCAACUCAAUAGAGGGGGGGAAAACCCCUUUACCCUCCACAUCAACAGCUCGCAGUCAAG | -0.0786
21 | GGUCACGUCUCAAUCAACUCCAUAGAGGGGGGGAAAACCCCUUUGCCCUCAACCUCAACAGCUCGCAGUCAAG | 0.239
22 | GGUCACGUCUCAAUCAACUCAUCGUCCAGGGAAAGCCCUGGUUAUUUCAACAGCUCGCAGUCAAG | -0.206
23 | GGUCACGUCUCAAUCAACUCAAUCUCCAGGGAAAUCCCUGGUUUACUCAACAGCUCGCAGUCAAG | -0.0502
24 | GGUCACGUCUCAAUCAACUCAUUUUCCAGGGAAAGCCCUGGUUUACUCAACAGCUCGCAGUCAAG | 0.0588

Row | Sequence | binding signal (log2 fold change)
25 | GGUCACGUCUCAAUCAACUCAGUUUCAGGAGUUUACUCCUGCUUAUUCAACAGCUCGCAGUCAAG | -0.0343
26 | GGUCACGUCUCAAUCAACUCUUCUUCAGGAGUUUUCUCCUGCUAACUCAACAGCUCGCAGUCAAG | 0.0439
27 | GGUCACGUCUCAAUCAACUCAAUUCCAGGAGUUUUCUCCUGCUAUGUCAACAGCUCGCAGUCAAG | 0.179
28 | GGUCACGUCUCAAUCAACUCUUUUUCCAGGGAAAGCCCUGGCUAAUUCAACAGCUCGCAGUCAAG | 0.0598
29 | GGUCACGUCUCAAUCAACUCAUCGUCCAGGGAAACCCCUGGCAAAUUCAACAGCUCGCAGUCAAG | 0.117
30 | GGUCACGUCUCAAUCAACUCUACUUCCAGGGAAACCCCUGGCUAACUCAACAGCUCGCAGUCAAG | -0.031
31 | GGUCACGUCUCAAUCAACUCAUCCCCCAGGGAAAGCCCUGGCUUAUUCAACAGCUCGCAGUCAAG | 0.148
32 | GGUCACGUCUCAAUCAACUCAUUCUCCAGGGAAACCCCUGGCAAAUUCAACAGCUCGCAGUCAAG | -0.0206
33 | GGUCACGUCUCAAUCAACUCUUAAGAGGGGGGGAAAACCCCUUUGCCCUCAAUGUCAACAGCUCGCAGUCAAG | 0.191
34 | GGUCACGUCUCAAUCAACUCUACUUCAGGAGUUUGCUCCUGCAUAUUCAACAGCUCGCAGUCAAG | -0.043
35 | GGUCACGUCUCAAUCAACUCCCCAGAGGGGGGGAAAACCCCUUUGCCCUCAAUAUCAACAGCUCGCAGUCAAG | 0.552
36 | GGUCACGUCUCAAUCAACUCAACUCCCAGGGAAAUCCCUGGUUUAUUCAACAGCUCGCAGUCAAG | -0.0536
37 | GGUCACGUCUCAAUCAACUCAAUCCCAGGAGUUUCCUCCUGCAUAUUCAACAGCUCGCAGUCAAG | 0.145
38 | GGUCACGUCUCAAUCAACUCAUUUCCCAGGGAAAUCCCUGGCUAACUCAACAGCUCGCAGUCAAG | -0.117
39 | GGUCACGUCUCAAUCAACUCAGUCUCAGGAGUUUCCUCCUGCUAAUUCAACAGCUCGCAGUCAAG | -0.0987
40 | GGUCACGUCUCAAUCAACUCAGUCUCAGGAGUUUCCUCCUGUUUUCUCAACAGCUCGCAGUCAAG | -0.0718
41 | GGUCACGUCUCAAUCAACUCAUCGUCCAGGGAAAUCCCUGGCUAUUUCAACAGCUCGCAGUCAAG | 0.00133
42 | GGUCACGUCUCAAUCAACUCUUCGUCAGGAGUUUUCUCCUGCUUUCUCAACAGCUCGCAGUCAAG | -0.0798
43 | GGUCACGUCUCAAUCAACUCCUUAGAGGGGGGGAAAACCCCUUUGCCCUCAUCUUCAACAGCUCGCAGUCAAG | -0.191
44 | GGUCACGUCUCAAUCAACUCUAUUUCCAGGGAAACCCCUGGCUUUUUCAACAGCUCGCAGUCAAG | -0.0653
45 | GGUCACGUCUCAAUCAACUCAAUCUCCAGGGAAAACCCUGGCAUUUUCAACAGCUCGCAGUCAAG | -0.377
46 | GGUCACGUCUCAAUCAACUCUUUCCCAGGAGUUUUCUCCUGUAUACUCAACAGCUCGCAGUCAAG | 0.136
47 | GGUCACGUCUCAAUCAACUCUAACGAGGGGGGGAAAACCCCUUUACCCUCAUCUUCAACAGCUCGCAGUCAAG | -0.323
